Some of the results follow. The full chains were built here from the parent and the listed change. Inactive controls read about 0.05.
B1: TEV protease; numbered along this chain (parent)
chain: MGESLFKGPRDYNPISSSICHLTNESDGHTTSLYGIGFGPFIITNKHLFRRNNGTLVVQSLHGVFKVKDTTTLQQHLVDGRDMIIIRMPKDFPPFPQKLKFREPQREERICLVTTNFQTKSMSSMVSDTSCTFPSGDGIFWKHWIQTKDGQCGSPLVSTRDGFIVGIHSASNFTNTNNYFTSVPKNFMELLTNQEAQQWVSGWRLNADSVLWGGHKVFMVKPEEPFQPVKEATQL

Variants of: B1
Test: raw area under fraction-flipped curve 0-4 h after induction (AUC4h, not background-subtracted), DNA-recorder readout of cleavage of the substrate (dimensionless); higher = more cleavage of the substrate by the protease variant
Details: temperature: 34 °C; time window: 0-4 h after rhamnose induction
Protocol: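 In vivo DNA recorder in E. coli TOP10(DE3) ΔrhaA at 34 °C. Each TEVp single-site mutant (parent TEVp 0) is paired with a single-site variant of the 7-mer TEVs (canonical ENLYFQ|S). The substrate sits between flexible linkers in a Bxb1-sfGFP-TEVs-SsrA fusion, so cleavage stabilises Bxb1 and speeds flipping of a recombination array, read by NGS. The value is the raw area under the fraction-flipped curve over 0-4 h after rhamnose induction (AUC4h), with ≥20 reads per time point. It is not background-subtracted; inactive controls average about 0.047.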
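Further: Bxb1 expression induced with 0.2% (w/v) L-rhamnose at OD600 near 0.5, cultures sampled hourly, flipped fraction per protease–substrate barcode pair counted by paired-end Illumina sequencing.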

Row | Variant | area with substrate ENLYFCS | area with substrate ENLYFDS | area with substrate ENLYFES | area with substrate ENLYFFS | area with substrate ENLYFGS | area with substrate ENLYFHS | area with substrate ENLYFIS | area with substrate ENLYFKS | area with substrate ENLYFMS | area with substrate ENLYFPS | area with substrate ENLYFRS | area with substrate ENLYFTS | area with substrate ENLYFWS | area with substrate ENLYFYS | area with substrate ENLYFLS | area with substrate ENLYFNS | area with substrate ENLYFVS | area with substrate ENLYFSS
1 | L33H | 0.058 | 0.0608 | 0.0507 | 0.0718 | 0.0478 | 0.0408 | 0.0597 | 0.076 | 0.0497 | 0.0604 | 0.044 | 0.0493 | 0.0527 | 0.0553 |  |  |  | 
2 | H29T | 0.0645 |  |  | 0.0705 |  |  | 0.0576 | 0.0682 | 0.0754 | 0.0585 | 0.0597 | 0.0611 |  | 0.0527 | 0.0517 | 0.0542 | 0.063 | 
3 | H29P | 0.0671 | 0.0481 | 0.0621 | 0.0545 | 0.0566 | 0.0534 | 0.0445 |  | 0.0642 | 0.0511 | 0.0732 | 0.0556 | 0.0666 |  | 0.0378 | 0.064 |  | 
4 | F49D | 0.0339 |  | 0.0636 | 0.0648 |  | 0.0714 | 0.0658 | 0.0587 | 0.0539 |  | 0.0731 | 0.0414 | 0.057 |  |  | 0.0538 | 0.0564 | 0.0388
5 | T70R | 0.0517 | 0.0522 | 0.0654 | 0.065 |  |  | 0.0483 | 0.061 | 0.0626 | 0.0541 | 0.0632 |  |  |  |  | 0.0558 | 0.0456 | 
6 | N13F | 0.0628 | 0.061 | 0.0568 | 0.0632 |  | 0.0564 | 0.0555 | 0.0771 | 0.0627 | 0.0512 | 0.0507 | 0.0555 | 0.0753 | 0.0591 | 0.0623 | 0.0629 | 0.0582 | 
7 | D79K | 0.0593 |  | 0.066 | 0.0623 | 0.0556 | 0.0582 | 0.0545 | 0.0408 | 0.061 | 0.0657 | 0.0671 | 0.0587 | 0.0446 | 0.0585 |  |  |  | 0.061
8 | G54K | 0.0632 | 0.0559 | 0.0625 | 0.067 |  |  |  | 0.0708 | 0.0477 | 0.0675 | 0.049 | 0.0596 | 0.047 | 0.0526 |  |  |  | 0.0525
9 | I19W | 0.0536 |  | 0.0516 | 0.0777 | 0.0461 | 0.0412 |  |  | 0.0521 | 0.0498 |  | 0.0417 | 0.0408 | 0.0385 |  |  |  | 
10 | L73R | 0.0631 | 0.0471 | 0.0785 | 0.0566 |  | 0.0511 | 0.0603 | 0.0377 |  | 0.0597 |  | 0.0543 |  | 0.0524 | 0.0605 | 0.0454 | 0.0643 | 0.0501
11 | L73Q | 0.0498 |  | 0.0563 | 0.0587 | 0.0553 | 0.0418 | 0.0502 | 0.0467 | 0.0554 | 0.0498 | 0.0394 | 0.0604 | 0.0505 | 0.0511 | 0.0318 | 0.0596 |  | 0.0599
12 | L73E | 0.0654 | 0.06 | 0.0539 | 0.072 | 0.0428 |  | 0.0513 | 0.0556 | 0.0489 | 0.0585 | 0.0637 | 0.0446 | 0.0521 | 0.051 |  |  |  | 0.0507
13 | Y12N | 0.0577 |  | 0.0678 | 0.0811 |  |  | 0.0576 | 0.0851 | 0.0673 | 0.0806 |  |  | 0.0427 | 0.0533 |  | 0.0608 | 0.0429 | 
14 | V57S | 0.055 |  | 0.0814 | 0.0649 | 0.0596 | 0.0544 | 0.0608 | 0.0496 | 0.0777 | 0.0573 |  |  | 0.0637 | 0.0717 | 0.047 | 0.0608 |  | 0.0752
15 | H76W | 0.0535 |  | 0.0474 | 0.0218 | 0.0817 | 0.0519 | 0.0552 |  | 0.063 | 0.0683 | 0.0594 | 0.0618 | 0.0577 | 0.0488 |  | 0.068 |  | 
16 | N53D | 0.0554 | 0.056 | 0.0704 | 0.0784 | 0.0561 |  | 0.0568 | 0.0684 | 0.0747 | 0.0381 | 0.0563 | 0.0534 | 0.0589 | 0.0392 |  | 0.0654 |  | 0.0686
17 | T44N | 0.0305 | 0.0323 | 0.0341 | 0.0622 | 0.0421 | 0.0433 | 0.0369 | 0.0381 | 0.0454 | 0.0504 | 0.0286 | 0.0477 | 0.0195 | 0.0347 | 0.0555 | 0.0211 | 0.0425 | 0.0481
18 | V58R | 0.0414 |  | 0.0498 | 0.0488 | 0.0454 | 0.0469 | 0.0448 | 0.0389 | 0.0382 | 0.0494 | 0.0592 | 0.0416 |  |  |  | 0.0556 | 0.0452 | 0.0418
19 | T30R | 0.0506 |  | 0.0661 | 0.0667 | 0.0597 |  | 0.0551 |  | 0.0626 | 0.0647 |  | 0.0538 | 0.0464 |  | 0.0623 | 0.0577 |  | 0.0542
20 | Q59G | 0.0519 | 0.0487 | 0.0611 | 0.0551 |  | 0.0521 | 0.0636 | 0.0619 |  | 0.0461 | 0.0461 | 0.0522 |  |  |  |  | 0.0354 | 
21 | S26Q | 0.0435 | 0.0667 | 0.069 | 0.0605 | 0.0669 |  | 0.0526 | 0.0489 | 0.0646 | 0.0559 |  | 0.0558 | 0.0438 | 0.0665 |  | 0.058 | 0.0878 | 0.0589
22 | I15M | 0.0569 |  |  | 0.082 |  |  | 0.0573 |  | 0.0569 | 0.0869 | 0.0715 | 0.0608 |  | 0.0648 |  |  |  | 
23 | L22S | 0.0399 | 0.0432 | 0.0681 | 0.0527 | 0.0593 | 0.0448 | 0.0422 | 0.047 | 0.0496 | 0.0486 | 0.0508 | 0.0444 |  | 0.0647 | 0.0438 | 0.0464 |  | 0.0495
24 | L22Y | 0.05 | 0.0884 | 0.0567 | 0.0558 | 0.0318 | 0.0269 | 0.0521 | 0.0533 | 0.0483 | 0.0512 | 0.0468 | 0.0461 | 0.0501 | 0.0428 |  | 0.0594 | 0.0527 | 
25 | L22H | 0.0378 | 0.0581 | 0.0439 | 0.0435 | 0.06 | 0.0398 | 0.0524 | 0.0442 | 0.0465 | 0.0488 | 0.0387 | 0.0365 | 0.0421 | 0.0592 | 0.0417 | 0.0622 | 0.0683 | 0.0513
26 | S4Y | 0.056 |  | 0.0787 | 0.0581 |  |  | 0.044 | 0.0666 | 0.0538 |  | 0.0432 | 0.0479 |  |  | 0.0554 | 0.0778 | 0.0925 | 
